Laboratory results published in PMC4336329 (PLoS ONE, 2015).
The whole screen tested about 310,000 compounds, of which about 14,000 (4.5%) showed an effect of 50% or more. The effect is printed as a negative number. Some of the results follow.

target: human ether-à-go-go-related gene (hERG) potassium channel (human, UniProt Q12809); test: primary screen, population patch clamp on CHO cells stably expressing hERG
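Further: peak tail current of the secondary pulse compared with the same well before compound.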

human ether-à-go-go-related gene (hERG) potassium channel, sequence (Q12809 whole entry, looked up): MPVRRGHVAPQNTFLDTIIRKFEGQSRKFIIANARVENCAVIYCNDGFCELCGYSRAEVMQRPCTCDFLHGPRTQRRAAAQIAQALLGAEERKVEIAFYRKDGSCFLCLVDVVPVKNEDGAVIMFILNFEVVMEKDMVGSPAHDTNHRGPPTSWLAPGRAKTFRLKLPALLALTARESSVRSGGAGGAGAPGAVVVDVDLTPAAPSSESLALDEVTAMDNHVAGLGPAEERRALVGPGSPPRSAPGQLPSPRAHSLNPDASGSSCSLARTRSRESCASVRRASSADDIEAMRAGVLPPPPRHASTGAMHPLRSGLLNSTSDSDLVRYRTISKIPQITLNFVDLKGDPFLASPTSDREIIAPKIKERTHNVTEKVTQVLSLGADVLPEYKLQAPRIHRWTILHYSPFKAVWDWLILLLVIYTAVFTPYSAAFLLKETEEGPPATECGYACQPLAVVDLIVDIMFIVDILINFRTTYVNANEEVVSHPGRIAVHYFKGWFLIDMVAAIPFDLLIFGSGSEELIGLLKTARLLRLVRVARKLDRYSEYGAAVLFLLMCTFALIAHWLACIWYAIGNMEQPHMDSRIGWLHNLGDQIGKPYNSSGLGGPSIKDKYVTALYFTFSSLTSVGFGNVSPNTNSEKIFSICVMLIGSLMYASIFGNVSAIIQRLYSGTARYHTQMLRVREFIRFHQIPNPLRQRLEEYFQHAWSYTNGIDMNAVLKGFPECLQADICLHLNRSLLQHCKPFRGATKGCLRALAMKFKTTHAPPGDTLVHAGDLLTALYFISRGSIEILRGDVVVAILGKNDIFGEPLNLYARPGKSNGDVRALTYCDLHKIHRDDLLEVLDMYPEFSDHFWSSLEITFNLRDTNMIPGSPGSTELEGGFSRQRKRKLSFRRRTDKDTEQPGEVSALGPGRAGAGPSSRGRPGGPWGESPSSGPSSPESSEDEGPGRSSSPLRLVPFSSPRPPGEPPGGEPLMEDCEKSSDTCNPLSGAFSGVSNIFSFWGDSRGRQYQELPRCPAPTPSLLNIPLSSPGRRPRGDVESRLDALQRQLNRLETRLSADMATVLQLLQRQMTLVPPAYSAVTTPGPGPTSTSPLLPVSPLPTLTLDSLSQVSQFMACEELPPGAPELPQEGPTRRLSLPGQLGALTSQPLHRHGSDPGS

Compound | hERG current change (%, negative = inhibition) at 10uM
O=C(CSc1nc(=O)n2ccccc2n1)NCc1ccc2c(c1)OCO2 | -37.8%
CCOc1ccc(CCNC(=O)C2CC(=O)N(CCc3ccc(OC)c(OC)c3)C2)cc1OCC (centres unmarked) | -4.11%
CN(C)C1=NC[C@H](Cc2ccccc2)N1CC1CCCC1 | -16.9%
CC(=C/c1ccco1)/C=N/NC(=O)c1ccncc1 | 12.4%
CCNC(=S)NNC(=O)c1cc(-c2ccc(OCC)cc2)nc2ccccc12 | -2.22%
N/C(=N\N=C\c1ccc(O)cc1O)N[N+](=O)[O-] | 9.87%
CCOc1ccc(N(CC(=O)NCc2ccccc2Cl)S(=O)(=O)c2c(C)[nH]c(=O)[nH]c2=O)cc1 | 7.75%
N#CC1=C(N)Oc2[nH]c(=S)[nH]c(=O)c2C12C(=O)Nc1ccccc12 (centres unmarked) | 15.1%
C=CCN(c1ccccc1C(=O)NCC(=O)O)S(=O)(=O)c1ccc(C)cc1 | 13%
O=C(NCc1ccccn1)C1CCN(S(=O)(=O)c2ccc(Br)cc2)CC1 | -26.8%
COc1ccc(CNC(=O)c2sc3nc4c(c(C(F)(F)F)c3c2N)CCC4)cc1 | 11.7%
CCOC(=O)CC(NS(=O)(=O)c1ccc(NC(C)=O)cc1)c1ccc(OCC)cc1 (centres unmarked) | -3.92%
Cc1cc(C)n(CC(O)COc2ccc(C(C)(C)C)cc2)n1 (centres unmarked) | 4.37%
COc1cc2c(cc1OC)CN(CC(=O)Nc1ccc(C#N)cc1)CC2 | -63.1%
N#C/C(=C\c1cccnc1)C(=O)Nc1cccc2ccccc12 | -3.47%
CC(=O)c1ccc(NC(=O)c2ccc(CSc3ccccc3)o2)cc1 | -8.11%
O=C1[C@@H]2C(c3ccccc3Cl)=NO[C@@H]2C(=O)N1Cc1ccccc1 | 6.11%
COc1cc(Cl)c(S(=O)(=O)N2CC(C)OC(C)C2)cc1Cl (centres unmarked) | 7.68%
O=C(CSc1nc(Cc2ccccc2)nc2ccccc12)Nc1ccc2c(c1)OCCO2 | -15.5%
CCCc1nc2c(c(=O)c3ccccc3n2C)c(=O)n1C1CCCCCC1 | -10.1%
CCn1ncc(Br)c1C(=O)Nc1ccn(C23CC4CC(CC(C4)C2)C3)n1 | 12%
O=C(NCCc1ccncc1)Nc1ccc(F)cc1 | 1.45%

Compound | hERG current change (%, negative = inhibition) at 10uM
Cc1ccc2nc(C)cc(C(=O)OCC(=O)Nc3c(C)n(C)n(-c4ccccc4)c3=O)c2c1 | -9.41%
Cc1nc(C)c(C(=O)Nc2cccc(Cl)c2)o1 | -11.3%
OCCN1CCN(C(=S)c2ccc(Cl)c(Cl)c2)CC1 | -5.55%
O=C(OCC(=O)C12CC3CC(CC(C3)C1)C2)c1ccccn1 | -6.62%
CCn1c(SCC(=O)Nc2cc(OC)c(OC)c(OC)c2)nnc1-c1cccs1 | -7.07%
CCOC(=O)c1nn(-c2cccc(OC)c2)c2nc(CC)c(C#N)c(=O)n12 | -3.07%
CCOC(=O)c1ccccc1NC(=O)CSc1nncn1C | 9.27%
COc1cc(CN2CCCC(CO)(Cc3ccccc3)C2)ccc1O (centres unmarked) | -17.6%
COc1cc(/C=N/NC(=O)CNC(=O)c2ccncc2)ccc1O | 3.69%
CCCCCN(C(=O)NC(=O)Nc1ccc(C)cc1C)S(C)(=O)=O | 13.2%
O=P(c1ccccc1)(c1nc2ccccc2s1)N1CCOCC1 (centres unmarked) | 16.6%
COc1ccc(S(=O)(=O)NC(C)C(=O)NCc2ccccn2)cc1OC (centres unmarked) | 13.1%
CNC(=S)NCCC(c1ccccc1)c1ccccc1 | 7.46%
NS(=O)(=O)c1cccc(NC(=O)CC23CC4CC(CC(Br)(C4)C2)C3)c1 | -1.64%
CCOC(=O)CSc1nc(C2CC2)nc2ccccc12 | -2.14%
COc1cccc(NC(=O)N2CCC(NC(=O)C3CCCCC3)CC2)c1 | 17.7%
Cc1ccc(-c2nc(N/N=C/c3cccc([N+](=O)[O-])c3)c3ccccc3n2)cc1 | 1.31%
CC(C)C/C(=N/O)c1c[nH]c2ccccc12 | -0.0398%
CCNC(=O)NC(=O)COC(=O)c1ccccc1SCC(=O)NC(=O)NCC | 3.64%
CCOP(=O)(NC12CC3CC(CC(C3)C1)C2)NC12CC3CC(CC(C3)C1)C2 | 16.2%
Cc1ccccc1OCCN1CCCC1 | 7.01%
CCN=c1scc(C)n1/N=C/c1cc(Br)c(O)c(Br)c1 | 2.83%
